Reference: ChEMBL document CHEMBL4888484, “Replenishing the malaria drug discovery pipeline: Screening and hit evaluation of the MMV Hit Generation Library 1 (HGL1) against asexual blood stage Plasmodium falciparum ,using a nano luciferase reporter read-out” (2022)
Out of some 150,000 compounds screened, about 540 (0.36%) showed an effect of 50% or more. Some of the results follow.

What follows are compounds tested on Plasmodium falciparum (assay: Primary screen in NF54 nanoGlo assay, in single point, at 2uM, 72h; a lower Z score goes with more inhibition). Conditions: timepoint 72 hour.
Type: functional, Erythrocyte

Structure (SMILES) | % Inhibition [%] | Z score
CC(=O)N1C(c2cnc(C)c(-c3ccccc3)c2)CC=C(C)C1c1ccccc1 (configuration not stated) | 3 | -0.37
COc1cccc(CN2CCN3C(=O)N(Cc4ccc(F)cc4)C[C@H]3C2)n1 | 12 | -1.86
CCC[C@H](C)c1cc(NS(=O)(=O)Cc2ccccc2)[nH]n1 | -1 | 0.14
Cc1cc(CN(C)C(=O)NCC2CCCCCCC2)no1 | -4 | 0.66
Cc1nn(Cc2ccc(Cl)cc2)c(C)c1C(=O)N1CCCNCC1 | -15 | 2.63
CC1OC2c3cccc4cccc(c34)C2N1c1ccccc1 (configuration not stated) | -10 | 1.13
O=C(COc1ccc2ccccc2c1)NC1CCN(C[C@H]2CCCO2)CC1 | -13 | 1.7
O=C(N[C@H](C(=O)O)c1ccccc1)c1cc(Cl)ccc1F | -15 | 1.54
O=C(NC[C@H](CC1CC1)C(=O)O)C1CC2(CC2)C1 | -12 | 2.05
NC(=O)c1cncc(NCc2cccnc2N2CCN(c3ccccn3)CC2)n1 | 2 | -0.41
Cc1c(C(=O)N2CC[C@H](C)c3cccc(O)c32)nnn1Cc1ccc(F)cc1F | -15 | 2.61
Cn1c(CCc2cccc(NC(=O)Nc3ccccc3Cl)c2)nc2ccccc21 | -9 | 1.4
CCC(=O)N1CCN(c2cc(-n3ccc(C)n3)ncn2)CC1 | -20 | 1.74
COc1ccccc1OCC(=O)N[C@@H]1CNC(=O)C1 | -6 | 1.2
Cc1ccc([C@H](C)N(C)C(=O)CCOC2CCOCC2)s1 | -7 | 1.2
CCn1cc(Cl)c(C(=O)N(CCO)Cc2nccs2)n1 | 1 | -0.15
O=C(c1cc(-c2ccc(F)cc2)n[nH]1)N1CCC(n2ccnn2)CC1 | -3 | 0.6
CCN(CC(=O)Nc1c(C)cccc1C)C(=O)C1CC2CCC1O2 (configuration not stated) | -8 | 0.85
O=C(c1cccc(F)c1)N1CC(=O)N2CCc3ccccc3[C@@H]2C1 | 5 | -0.68
O=S(=O)(c1cccc(NCc2ccccc2C(F)(F)F)c1)N1CCOCC1 | -1 | 0.22
CN(CCc1cnn(C)c1)Cc1cccc(Cl)c1 | 0 | -0.01
C[C@H](NCc1cnc(C(C)(C)C)s1)c1cn[nH]c1 | 17 | -2.19

Structure (SMILES) | % Inhibition [%] | Z score
Cc1ccc(S(=O)(=O)N2c3ccccc3[C@](C)(c3ccccc3)CC2(C)C)cc1 | -16 | 2.09
CCc1ccc([C@@H](C)C(=O)NCc2csc(=O)[nH]2)cc1 | 30 | -3.42
O=C(c1ccc(-c2nc(-c3ccc(F)cc3)no2)cc1)N1CCN(Cc2ccc3c(c2)OCO3)CC1 | 0 | -0.02
Cn1cc(Br)c(C(=O)NCC2(C3(O)CCC3)CC2)n1 | -13 | 2.07
O=C1CC[C@H](Nc2cnc3cc(Cl)c(Cl)cc3n2)CN1 | 5 | -0.94
Cc1ccc(C(=O)NCC2CC3C=CC2CC3)nn1 (configuration not stated) | -2 | 0.47
CCC1(CC)NC(=O)N(CC(=O)Nc2cccc(-c3csc(C)n3)c2)C1=O | -12 | 1.59
CN(Cc1nccs1)c1ccc(F)cn1 | -3 | 0.39
Fc1ccc([C@H](c2nnc(-c3ccccc3)o2)N2CCN(C3CCCCC3)CC2)cc1 | 0 | -0.01
CCN(CCN(C)C)c1ccc(NC(=O)c2cccs2)cc1C(=O)O | -24 | 2.17
CC(C)CNC(=O)c1cc(=O)c(OCc2cccc(Cl)c2)cn1CCO | -2 | 0.3
C=C[C@](C)(CC)C(=O)N1CC(CC(N)=O)C1 | -11 | 1.21
CC(C)(C)N1C[C@@H](c2nc(-c3ccc4c(c3)CCC4)no2)CC1=O | -13 | 1.73
CC(C)CNC(=O)COc1ccccc1Br | -5 | 0.73
Cc1ncnc(N2CCn3c(nc(C)c3C(=O)N(C)C)C2)c1C | 10 | -1.37
CN1CCC(CN(CCc2ccccc2)C(=O)c2ccc(Cl)s2)CC1 | 11 | -1.83
CC1(C)CN(C(=O)c2cn[nH]c(=O)c2)C(C)(C)CN1Cc1ccccc1 | 24 | -4.47
Cc1ccc(C2=C[C@@H](c3ccccc3)n3nnnc3N2CC(=O)N2CCCC2)cc1 | -6 | 0.74
CC1CCCCC1NC(=O)COc1ccccn1 (configuration not stated) | -7 | 0.98
CC(CC(=O)N1CCOCC1)NCC(C)c1ccsc1 (configuration not stated) | 5 | -0.72
COc1ccccc1N(CN1CCCC1=O)C(=O)c1c(F)cccc1F | 6 | -1.07
c1n[nH]cc1CCn1cc(-c2ccc3c(c2)CCC3)nn1 | -4 | 0.6

Structure (SMILES) | % Inhibition [%] | Z score
O=C(NC1CC(F)(F)C1)c1cn[nH]c1 | 2 | -0.21
Cn1cc(C(=O)NCCc2ccccc2)nn1 | -2 | 0.35
Cc1cc(C)c2ncn([C@H]3CC[C@H](N)C3)c(=O)c2c1 | -13 | 2.13
COC1(CC(=O)NCc2ccc(Oc3ccccc3)cn2)CCC1 | -12 | 1.48
CN(Cc1ccccc1)CC1CCN(Cc2nnc3n2CCCCC3)CC1 | 0 | -0.05
Cc1cccc(NC(=O)N2CCN(c3cnn4c(C5CC5)nnc4c3)CC2)c1 | 31 | -3.5
Cc1cc(N[C@@H](c2ccc(F)cc2)c2ccccc2Cl)n2ncnc2n1 | -13 | 1.69
Cc1c(N2CCN(C(=O)c3ccccc3)CC2)c(=O)n(C)c(=O)n1C | -7 | 1.12
O=C(CC1CCCC1)NCc1ccc([C@@H](O)c2cccs2)s1 | -24 | 3.08
O=C(c1cccc(Cn2ccnn2)c1)N1CCC[C@H](N2CCCC2)CC1 | -6 | 1.06
Fc1ccc2nc(N3CCO[C@H](C4CCC4)C3)oc2c1 | 6 | -0.75
Cc1nc2ccc(NC(=O)c3cncnc3)cn2n1 | 0 | -0.03
CCCN(CC(=O)N1CCn2cccc2[C@H]1c1cccc(F)c1)C(=O)Nc1ccccc1C | -16 | 1.45
C[C@@H](C(N)=O)N1CCCn2nc(CCC(=O)NC3CC3)cc2C1 | -13 | 1.67
Cc1nc(-c2csc(S(=O)(=O)N3CCC(C(=O)N4CCC(C)CC4)CC3)c2)no1 | -15 | 1.7
CCc1nsc(N[C@H]2CC(=O)N(CCN(C)CCOC)C2)n1 | 4 | -0.6
Cc1ccc([C@@H]2COCCN2C(=O)NCCc2c(C)nn(C)c2C)o1 | -9 | 0.95
COc1ccc(-c2noc(-c3cccnc3NCc3ccco3)n2)cc1 | -5 | 0.81
CCOc1cc(C(=O)OC)cc(N)c1OCC | -6 | 0.67
CC(=O)c1ccc(S(=O)(=O)NC(=O)c2ccc(C#N)[nH]2)cc1 | -14 | 1.35
O=C(Cn1nc(C2CC2)n(-c2ccccc2)c1=O)NCc1ccc2c(c1)OCO2 | 7 | -0.83
CC(C)CN1CC[C@H](CNC(=O)c2cc(C(C)(C)C)nc(=O)[nH]2)C1 | -6 | 1.18

Structure (SMILES) | % Inhibition [%] | Z score
Cc1c(C(=O)NC2CCCC2)c(C(F)(F)F)nn1C1CCN(C(C)C)CC1 | 2 | -0.28
O=C(CN1CCN(c2ccc3c(c2)OCO3)C1=O)Nc1nc2ccccc2s1 | -12 | 2.06
N[C@@H](CCC(=O)N1CCCCCCC1)c1ccccc1 | 29 | -3.32
Clc1ccc(-c2nnc(C3CCC(c4ccccc4)CC3)o2)cc1 (configuration not stated) | -2 | 0.3
O=C(NC[C@H](O)c1ccc2c(c1)CCO2)Nc1ccccc1C(F)(F)F | -3 | 0.44
COc1ccc(-c2cc3n(n2)CCCN(C(=O)c2cccc(C)c2)C3)cc1OC | -6 | 0.64
O=C(NCC#CCOc1cccc(C(F)(F)F)c1)c1ccc(=O)[nH]n1 | -6 | 0.91
CCN1CCN(C(=O)c2cc3cc(NC(=O)CC(C)(C)C)ccc3n2Cc2cccc(C)c2)CC1 | 8 | -1.06
NC(=O)CNc1cccc(C(F)(F)F)c1 | -2 | 0.41
CN(Cc1ccccc1)c1ncc(NS(=O)(=O)c2cccc(F)c2)cc1C(=O)O | -18 | 1.75
CCN(C(=O)CN(C)S(C)(=O)=O)c1ccccc1 | 1 | -0.26
CN(C)c1ccnc(CNC(=O)N[C@H]2CC23CCCCC3)c1 | -5 | 0.86
O=C(Cn1ncn2c(cc3ccccc32)c1=O)N1CCN(c2ccccc2)CC1 | -15 | 1.94
c1ccc2c(NC[C@H]3CCCO3)nccc2c1 | 2 | -0.34
CNC(=O)c1ccc(Cl)c(NC[C@]2(c3ccc(F)cc3)CCOC2)c1 | -2 | 0.35
O[C@@H](CN1CCC(n2ccnc2)CC1)c1cccc2ccccc12 | -10 | 1.31
CC(=O)Nc1ccc(S(=O)(=O)NCCc2cc(F)cc3c2OCOC3)cc1 | -4 | 0.59
O=C(NCc1csnn1)c1ccc(Cl)cc1 | -13 | 2.06
Cc1csc(-c2cc(S(=O)(=O)NC3CCCCCCC3)c(C)n2C)n1 | -7 | 0.77
Cc1ccc(C)c(NS(=O)(=O)c2ccc3c(c2)CCN3S(C)(=O)=O)c1 | -13 | 1.89
